# The campaign covered roughly 310,000 compounds. About 2,200 (0.71%) showed an effect of 50% or more. Effects have a minus sign here. This is one part of the list.
# Target: human ether-à-go-go-related gene (hERG) potassium channel (human, UniProt Q12809)
# Test: primary screen, population patch clamp on CHO cells stably expressing hERG
# Sequence of human ether-à-go-go-related gene (hERG) potassium channel (Q12809 whole entry, looked up): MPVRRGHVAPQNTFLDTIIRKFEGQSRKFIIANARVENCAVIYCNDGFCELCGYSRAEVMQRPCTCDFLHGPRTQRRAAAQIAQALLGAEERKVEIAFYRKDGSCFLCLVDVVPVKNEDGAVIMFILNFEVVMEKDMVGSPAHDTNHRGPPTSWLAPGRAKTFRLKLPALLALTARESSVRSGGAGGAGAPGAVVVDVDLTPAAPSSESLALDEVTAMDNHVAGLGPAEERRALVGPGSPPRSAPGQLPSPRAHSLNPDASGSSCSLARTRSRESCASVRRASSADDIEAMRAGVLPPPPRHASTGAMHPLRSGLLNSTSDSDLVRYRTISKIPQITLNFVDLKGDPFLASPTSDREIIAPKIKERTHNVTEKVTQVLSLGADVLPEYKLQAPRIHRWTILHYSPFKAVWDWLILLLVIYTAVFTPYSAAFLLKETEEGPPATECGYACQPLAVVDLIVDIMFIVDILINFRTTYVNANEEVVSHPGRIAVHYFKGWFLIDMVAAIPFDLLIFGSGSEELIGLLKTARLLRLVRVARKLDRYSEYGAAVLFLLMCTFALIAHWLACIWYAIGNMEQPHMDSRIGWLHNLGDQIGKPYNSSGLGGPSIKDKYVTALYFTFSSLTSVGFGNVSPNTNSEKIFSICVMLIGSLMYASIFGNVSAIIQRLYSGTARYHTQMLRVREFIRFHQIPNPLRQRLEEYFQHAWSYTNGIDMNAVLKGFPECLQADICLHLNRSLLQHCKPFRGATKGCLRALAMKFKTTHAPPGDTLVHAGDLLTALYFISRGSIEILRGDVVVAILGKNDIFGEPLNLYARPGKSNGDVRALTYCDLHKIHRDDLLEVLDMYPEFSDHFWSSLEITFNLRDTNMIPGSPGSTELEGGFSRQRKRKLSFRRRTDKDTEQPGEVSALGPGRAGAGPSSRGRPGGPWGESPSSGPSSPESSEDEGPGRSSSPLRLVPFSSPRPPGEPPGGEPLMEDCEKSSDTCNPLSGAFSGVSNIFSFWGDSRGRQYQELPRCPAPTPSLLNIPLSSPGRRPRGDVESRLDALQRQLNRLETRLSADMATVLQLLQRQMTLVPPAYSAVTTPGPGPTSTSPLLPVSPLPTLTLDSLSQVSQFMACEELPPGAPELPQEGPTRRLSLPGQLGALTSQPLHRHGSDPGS
row,Structure (SMILES),"hERG current change (%, negative = inhibition) at 1uM"
1,Cc1cc(NCCCn2ccnc2)n2ncc(-c3ccc(Cl)cc3)c2n1,-25.2%
2,CCc1cc(=O)oc2cc(OCC(=O)N(CC)CC)c(Cl)cc12,15.3%
3,Cc1nc2c(-c3ccc(F)cc3)c(C)nn2c(C)c1CCC(=O)N1CCC(Cc2ccccc2)CC1,5.52%
4,O=S(=O)(c1ccccc1F)N1CCc2ccccc2C1,17.6%
5,CC(=O)N(CN1C(=O)c2ccccc2C1=O)c1cccc(C)c1,3.96%
6,CCCCn1c(N)c(N(Cc2ccccc2OC)C(=O)COc2ccccc2C#N)c(=O)[nH]c1=O,8.57%
7,O=S(=O)(c1ccc2nnn(O)c2c1)N1CCCCC1,11.4%
8,Cc1ccc(-n2c(SCC(=O)NCc3ccco3)nc3sc(C)c(C)c3c2=O)cc1,12.1%
9,COc1ccc(NC(=O)CS(=O)CC(=O)Nc2ccc(NC(C)=O)cc2)cc1 (stereo not drawn),7.24%
10,CC(=O)N1CCC(N2CCN(c3ccccc3F)CC2)CC1,0.633%
11,COc1ccc(NC(=O)c2ccc(-c3nn(C)c(=O)c4ccccc34)cc2)cc1,9.83%
12,O=C(/C=N/NC(=O)c1ccccc1Br)c1ccccc1,4.31%
13,CC1CC(C)CN(C(=O)CNC(=O)Cn2ccc3ccccc3c2=O)C1 (stereo not drawn),6.56%
14,CCc1ccc(/C=N/n2c(C)cc(C)c(C#N)c2=O)cc1,14.5%
15,COC(=O)c1cc(NC(=O)CN(C)Cc2ccccc2)cc(C(=O)OC)c1,9.48%
16,C#CCOCCOCCOCCNc1nc(N2CCN(C(=O)CCCCCCCCCCNC(=O)[C@@H](CCSC)n3cc(CCO)nn3)CC2)nc(N2CCN(C(=O)CCCCCCCCCCNC(=O)[C@H]([C@@H](C)CC)n3cc(CCCCN=C(N)N)nn3)CC2)n1,11.8%
17,COc1cc(C(=O)Nc2oc(-c3ccccc3)c(-c3ccccc3)c2C#N)cc(OC)c1OC,-14.5%
18,CCOC(=O)c1[nH]c2cc3c(cc2c1CCCN1C(=O)c2ccccc2C1=O)OCCO3,0.667%
19,CCCCC1=CC2=CC(=O)C(C)(OC(=O)CC)C(=O)C2=CO1 (stereo not drawn),19%
20,COc1ccc(CC(=O)N/N=C(\C)CC(=O)Nc2cccc(F)c2)cc1,9.98%
21,O=C(CCl)N1CCCC1c1ccc2c(c1)OCCO2 (stereo not drawn),16.8%

row,Structure (SMILES),"hERG current change (%, negative = inhibition) at 1uM"
1,CCc1noc(C)c1C(=O)NNC(=O)COc1ccccc1C,8.72%
2,COc1cccc(C(=O)Nc2cccc(-c3nc4ncccc4o3)c2C)c1,12.6%
3,O=c1c([N+](=O)[O-])c(N2CCCCC2)c2ccccc2n1-c1ccccc1,12.1%
4,Cc1cc(=O)oc2ccc(OCC(=O)N(Cc3ccc(F)cc3)Cc3ccco3)cc12,-19.7%
5,CC(C)C(O)(C#CCN1CCCCC1)c1ccccc1.Cl (stereo not drawn),8.05%
6,O=C1OCCN1P(=O)(c1ccccc1)c1ccccc1,0.204%
7,CN1CC2(C)OC(=O)C(Cl)=C2CC1c1ccccc1 (stereo not drawn),11.2%
8,Cc1cc(-c2ccc(Cl)cc2)c2cnn(C(C)C)c2n1,15.7%
9,Cc1cc(C)cc(NC(=O)CSc2nc3c(oc4ccccc43)c(=O)n2-c2ccccc2)c1,-1.68%
10,Cc1csc(SCC(=O)N2CCN(S(=O)(=O)c3ccc(Cl)cc3)CC2)n1,-7.12%
11,CC(=O)Nc1ccccc1P(=O)(c1ccccc1)c1ccccc1OC(C)=O (stereo not drawn),13.3%
12,CCOc1c(C(N)=O)cc([N+](=O)[O-])cc1[N+](=O)[O-],10.8%
13,Cc1cc(C)nc(NS(=O)(=O)c2ccc(NC(=O)CN3C(=O)S/C(=C\c4ccccc4)C3=O)cc2)n1,6.31%
14,C=CCOc1ccc(C2N3CC4(CC)CN2CC(CC)(C3)C4=O)cc1 (stereo not drawn),-0.798%
15,CN(C)S(=O)(=O)c1cccc(NC(=O)c2ccc3c(c2)S(=O)(=O)N=C2CCCCCN23)c1,19.6%
16,COc1ccc2[nH]c(C(=O)O)c(CCN3C(=O)c4cccc([N+](=O)[O-])c4C3=O)c2c1,11.9%
17,Cc1cccc(C)c1NC(=O)C1CCCN1C(=O)OC(C)(C)C (stereo not drawn),10.5%
18,COc1ccc(C(=O)N2CCN(C(=O)c3cc(OC)c(OC)c(OC)c3)CC2)cc1,-8.94%
19,Cc1ccc(C(=O)n2c3ccccc3c3ccccc32)cc1,10.5%
20,CCc1ccc2[nH]c(=O)c(CN(CCN(C)C)C(=O)Nc3ccccc3OC)cc2c1,-41.4%
21,COc1ccc(-c2noc(CNC(=O)c3ccc4c(c3)OCO4)n2)cc1,2.84%

row,Structure (SMILES),"hERG current change (%, negative = inhibition) at 1uM"
1,COc1ccccc1-c1cc(C(=O)Nc2ccc(F)cc2F)no1,5%
2,O=C(Oc1ccc2ccccc2c1)c1cncc(Br)c1,-3.28%
3,O=C(NCc1ccc(F)cc1)c1cccc2c1C(=O)c1ccc(N3CCOCC3)cc1S2(=O)=O,14.1%
4,Cc1cccc(C(=O)NN(C)c2nc(-c3ccccc3)nnc2C(F)(F)F)c1,-4.7%
5,Cl.N=c1n(CCN2CCCC2)c2ccccc2n1CC(O)c1ccc(Cl)c(Cl)c1 (stereo not drawn),-33.2%
6,Cn1c(=O)c2c(nc(NCCc3ccccc3)n2Cc2ccccc2)n(C)c1=O,15.1%
7,O=C(NCC1CCCN1S(=O)(=O)c1cccs1)C(=O)Nc1cccc(F)c1 (stereo not drawn),8.62%
8,CCOc1cc(/C=N/NC(=O)c2ccncc2)ccc1OC(=O)c1ccc([N+](=O)[O-])cc1,6.99%
9,Cc1ccc(NC(=S)NC(=O)c2ccc(Br)o2)c(C)c1,13.3%
10,CCc1nnc(NC(=O)CSc2nnc(Cc3cccn3C)n2CCOC)s1,8.29%
11,O=C(NCC(c1cccs1)N1CCOCC1)c1ccc([N+](=O)[O-])cc1 (stereo not drawn),-0.778%
12,O=C(CC1CCCCC1)NCc1cn2ccsc2n1,15.8%
13,COc1ccc(Cc2nc(C(=O)Nc3ccc(F)cc3)cs2)cc1,13.6%
14,COc1ccccc1NC(=O)C(C)OC(=O)CCCc1c[nH]c2ccccc12 (stereo not drawn),7.15%
15,O=C(CCC1CCCC1)N[C@@H](Cc1ccc(O)cc1)C(=O)O,19%
16,CCCCn1c(N)c(N(CC(C)C)C(=O)C2CCN(C(=O)c3ccc(Cl)cc3)CC2)c(=O)[nH]c1=O,1.13%
17,CC1CCCC(NC(=O)COC(=O)CN2C(=O)C3CCCCC3C2=O)C1C (stereo not drawn),15.2%
18,COCCN(C(=O)Cn1c(C(F)(F)F)nc2ccccc21)c1c(N)n(Cc2ccccc2)c(=O)[nH]c1=O,0.848%
19,O=S(=O)(c1ccc(Cl)cc1)N1CCCC(C(F)(F)F)C1 (stereo not drawn),13.3%
20,CCOc1ccc(NC(=O)c2ccc(Br)o2)c([N+](=O)[O-])c1,3.16%
21,Nc1nc(SCC(=O)Nc2ccccc2)[nH]c(=O)c1NC(=O)c1cccs1,7.11%

row,Structure (SMILES),"hERG current change (%, negative = inhibition) at 1uM"
1,CCOC(=O)c1cnc2ccc(C)cn2c1=O,-2.98%
2,O=C(Nc1ccc(F)cc1F)Nc1sccc1-c1nc2ccccc2s1,15%
3,COc1ccc(C(=O)COC(=O)CCN2C(=O)C3C4C=CC(C5CC45)C3C2=O)cc1 (stereo not drawn),12.9%
4,O=C(c1cccs1)N1CCN(c2cc(Cl)ccc2Cl)CC1,9.11%
5,CCOc1ccccc1-c1cc(C(=O)Nc2ccc(C(=O)O)cc2)c2ccccc2n1,17.1%
6,Nn1c(Cc2cccc3ccccc23)nnc1SCCOc1ccc(F)cc1,10.7%
7,COc1cc(C)c(NC(=S)Nc2ccc(C)c(Cl)c2)cc1OC,7.52%
8,O=C(/C=C/c1ccc(Cl)cc1Cl)N1CCc2ccccc21,3.81%
9,Cc1cc(COC(=O)C2N3C(=O)[C@@H](NC(=O)COc4ccccc4)[C@H]3SC2(C)C)on1 (stereo partly drawn),-0.692%
10,N/C(=N\c1nc2c(c(=O)[nH]1)CCC2)Nc1cccc(Cl)c1,9.68%
11,CC(=O)Nc1cc(NC(=O)CCCC(=O)O)ccc1Cl,3.1%
12,O=C(CSc1nc2ccc(Nc3nc(N4CCOCC4)nc(N4CCOCC4)n3)cc2s1)N1CCOCC1,-0.773%
13,CC(C)CN(C(=O)COC(=O)c1cccnc1Cl)c1c(N)n(Cc2ccccc2)c(=O)[nH]c1=O,6.1%
14,O=[N+]([O-])c1cccc(-c2nc(-c3ccccc3)c(-c3cccs3)[nH]2)c1,11.9%
15,O=C(CCc1nnc(C2CCCCC2)o1)N1CCN(Cc2ccccc2)CC1,15.5%
16,Cn1nc(C(F)(F)F)c(CNC(=O)C(C)(C)CCl)c1N1CCOCC1,8.79%
17,CN(C)c1ccc(/C=C(/C#N)C(=O)NCc2ccccc2)o1,10.1%
18,COC(CN(C)S(=O)(=O)c1cc2c3c(c1)CCN3C(=O)CC2)OC,21.2%
19,COc1ccc(CN2CCNC(=O)C2CC(=O)NCCc2nc(C)c3c(n2)CCC3)cc1C (stereo not drawn),32.9%
20,O=C(O)c1ccc(COc2cccc(CO)c2)cc1,9.83%
21,CCOc1cc(/C=C2/C(=N)N3C(=NC2=O)SN=C3S(C)(=O)=O)ccc1OS(=O)(=O)c1ccccc1,17.3%
